# The campaign covered roughly 310,000 compounds. About 14,000 (4.5%) showed an effect of 50% or more. Effects have a minus sign here. This is one part of the list.
# Biological target: human ether-à-go-go-related gene (hERG) potassium channel (human, UniProt Q12809)
# Experiment: primary screen, population patch clamp on CHO cells stably expressing hERG
# 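Note: peak tail current of the secondary pulse compared with the same well before compound.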
# Chain of human ether-à-go-go-related gene (hERG) potassium channel (Q12809 whole entry, looked up): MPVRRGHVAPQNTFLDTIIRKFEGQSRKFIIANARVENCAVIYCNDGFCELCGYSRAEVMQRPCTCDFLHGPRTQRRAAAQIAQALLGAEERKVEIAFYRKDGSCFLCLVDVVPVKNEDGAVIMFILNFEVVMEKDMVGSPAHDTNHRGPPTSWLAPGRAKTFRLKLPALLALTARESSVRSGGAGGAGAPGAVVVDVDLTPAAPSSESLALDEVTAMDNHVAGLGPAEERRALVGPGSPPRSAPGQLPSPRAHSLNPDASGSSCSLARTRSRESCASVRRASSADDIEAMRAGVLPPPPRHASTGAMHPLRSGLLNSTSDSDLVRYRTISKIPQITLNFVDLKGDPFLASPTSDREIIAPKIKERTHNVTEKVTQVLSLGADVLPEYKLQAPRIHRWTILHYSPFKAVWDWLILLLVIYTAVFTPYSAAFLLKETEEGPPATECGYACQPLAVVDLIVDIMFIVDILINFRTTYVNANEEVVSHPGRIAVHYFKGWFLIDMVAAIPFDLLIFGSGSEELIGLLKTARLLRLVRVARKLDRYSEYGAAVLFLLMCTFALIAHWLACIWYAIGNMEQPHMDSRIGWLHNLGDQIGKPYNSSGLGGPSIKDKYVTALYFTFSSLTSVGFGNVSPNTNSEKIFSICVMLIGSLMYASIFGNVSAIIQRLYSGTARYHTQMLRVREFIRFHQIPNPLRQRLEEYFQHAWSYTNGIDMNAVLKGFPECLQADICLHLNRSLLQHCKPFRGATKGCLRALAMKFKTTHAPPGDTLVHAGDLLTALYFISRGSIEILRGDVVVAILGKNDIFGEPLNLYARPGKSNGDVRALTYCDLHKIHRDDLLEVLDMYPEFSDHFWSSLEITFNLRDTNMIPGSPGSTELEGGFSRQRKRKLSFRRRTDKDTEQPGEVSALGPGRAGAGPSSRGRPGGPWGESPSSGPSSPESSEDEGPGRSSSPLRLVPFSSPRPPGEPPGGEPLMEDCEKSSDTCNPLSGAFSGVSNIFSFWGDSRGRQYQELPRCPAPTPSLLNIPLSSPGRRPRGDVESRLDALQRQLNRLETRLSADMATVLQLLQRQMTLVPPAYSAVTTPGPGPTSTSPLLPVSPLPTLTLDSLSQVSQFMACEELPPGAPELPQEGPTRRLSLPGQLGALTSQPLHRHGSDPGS
row,Compound,"hERG current change (%, negative = inhibition) at 10uM [%]"
1,CC(=O)n1nc(-c2ccncc2)nc1SCC(=O)Nc1cccc(Cl)c1,21.2
2,COc1ccc(CN(C)C(=O)C2CSC3(C)CCC(=O)N23)cc1 (stereo not drawn),-3.5
3,Cc1ccc(Sc2c(C(=O)Nc3ccc(F)cc3F)c(C(F)(F)F)nn2C)cc1,16.6
4,O=C1N=C(N2C=CC(=C3C=CNC=C3)C=C2)/C(=C/N=NC(=O)c2ccccc2)S1,30.3
5,N#Cc1ccccc1NC(=O)C(=O)NCC1CCCN1S(=O)(=O)c1cccs1 (stereo not drawn),-6.44
6,COc1ccc(N2CCN(C(=O)c3ccc(-c4ccccc4)cc3)CC2)cc1,26.3
7,NNC(=O)/C(=C\c1cccs1)NC(=O)c1ccccc1,7.19
8,COc1ccc(C(CNC(=O)CSc2ccccc2F)N2CCOCC2)cc1 (stereo not drawn),10.7
9,Cc1ccc(S(=O)(=O)Nc2c(NC3CCCCC3)c3ccccc3oc2=O)c(C)c1,-19.6
10,NS(=O)(=O)c1ccc(CNC(=O)c2ccc3ccccc3n2)cc1,13.6
11,COc1ccccc1-c1nnc(SCc2nc3ccccc3[nH]2)n1C,-12.6
12,CCN1C(=O)c2cccc3c(S(=O)(=O)Nc4ncccc4C)ccc1c23,-9.98
13,COc1ccc(/C=C(\C#N)C(=O)Nc2ccccn2)cc1,13.1
14,CCCN1/C(=C(/C#N)C2=NS(=O)(=O)c3ccccc32)N(C)c2ccccc21,-19.3
15,COc1ccc(C(=O)Cn2cc([N+](=O)[O-])nc2C)cc1,11.7
16,Br.CC(=O)c1ccc(N2Cc3ccccc3C3(CCOCC3)C2=N)cc1,-57.5
17,CCCCN(CC)C(=O)c1ccc(Cl)cc1,28.4
18,Cc1cc(S(=O)(=O)N2CCC(N3CCCCC3)CC2)ccc1-n1cnnn1,-1.17
19,COc1cc(CC(=O)Nc2cc(S(C)(=O)=O)ccc2Cl)cc(OC)c1OC,21.3
20,S=c1[nH]nc(C2CCCCC2)n1/N=C/C=C/c1ccccc1,10.1
21,CC1=C(C(=O)Nc2ccc(Br)cc2)C(c2ccco2)NC(=O)N1 (stereo not drawn),-23.3
22,CCc1ccccc1NC(=O)c1onc(C)c1Cl,7.86

row,Compound,"hERG current change (%, negative = inhibition) at 10uM [%]"
1,COc1cc(C(=O)NCC(c2cccnc2)N2CCN(c3ccc(F)cc3)CC2)cc(OC)c1OC (stereo not drawn),-25.7
2,CCOC(=O)N1CCN(C(=O)c2cn(CC)c3ccc(S(=O)(=O)N4CCCCC4)cc3c2=O)CC1,12.2
3,O=C(COc1ccc(Cl)cc1)NNC(=O)C(=O)NC1CCCCC1,-21.2
4,CC1CCCCN1CCCNC(=O)CN1C(=O)CSc2ccc(S(=O)(=O)N3CCOCC3)cc21 (stereo not drawn),19.5
5,CCC1(CC)NC(=O)N(CC(=O)OC(C)C(=O)Nc2ccc(Cl)cn2)C1=O (stereo not drawn),-51.7
6,CCc1cc(C(=O)N(CC(C)C)c2c(N)n(Cc3ccccc3)c(=O)[nH]c2=O)sc1C,-19.7
7,COc1ccccc1NC(=O)CSc1ccc(-c2ccccn2)nn1,-8.04
8,Cn1c(=O)c2c(nc(Cc3ccccc3)n2C)n(C)c1=O,15.7
9,CCC(=O)c1ccc(OCC(O)Cn2nnc3ccccc32)cc1 (stereo not drawn),-20.1
10,COc1ccccc1NC(=O)c1nnn(CC(=O)Nc2ccccc2)c1N,7.36
11,Cc1cccc(NC(=O)CCNC(=O)c2ccccc2)c1,19.5
12,CCCCNC(=S)NCC(c1ccccc1)c1c[nH]c2ccccc12 (stereo not drawn),14.7
13,CCn1c(SCC(=O)NCc2ccc3c(c2)OCO3)nnc1-c1cccs1,-23.1
14,CC(C)COc1ccc(CN=C(N)N=C(N)N)cc1Cl.Cl,-14.5
15,Nn1cc(-c2ccccc2)nc1SCC(=O)N1CCN(S(=O)(=O)c2ccccc2)CC1,-37.2
16,O=C1[C@@H]2Cc3c([nH]c4ccccc34)C(c3ccccc3)N2C(=O)CN1CCO (stereo partly drawn),-5.39
17,COc1cccc(COC(=O)C2CCN(S(=O)(=O)c3cccs3)CC2)c1OC,-14.5
18,CCN(CC)S(=O)(=O)c1ccc(C(=O)Nc2nnc(COC)o2)cc1,1.07
19,COc1ccc(-c2ccc(CCC(=O)O)n2NC(=O)c2ccc(C(C)(C)C)cc2)cc1,22.9
20,O=S(=O)(NCCSc1ccccn1)c1ccc(Cl)cc1,-21.2
21,CC1(CC(=O)N/N=C/c2cc3c(cc2Br)OCO3)OCCO1,15.5
22,O=C(CCNC(=O)c1ccc(Cl)cc1)Nc1ccc(S(=O)(=O)N2CCCCC2)cc1,-15.8

row,Compound,"hERG current change (%, negative = inhibition) at 10uM [%]"
1,CCN(CC(=O)NCc1cccs1)C(=O)/C=C/c1cc(OC)ccc1OC,-2.74
2,Cc1ccc(C)c(OCCC(=O)OCC(=O)NC(=O)NC2CCCC2)c1,-9.77
3,CCCCOP(=O)(OCCCC)C(Nc1ccccc1)c1ccc2c(c1)OCO2 (stereo not drawn),-23.5
4,COC(=O)CN(n1cnnc1)S(=O)(=O)c1ccccc1,12.4
5,Cc1ccc(NC(=S)NNc2ncc(C(F)(F)F)cc2Cl)c(C)c1,5.17
6,O=C(Nc1ccc(Cl)cc1)C1CCCN(c2cnccn2)C1 (stereo not drawn),-13.4
7,Cc1ccnc(NC2c3ccccc3C(=O)N2Cc2ccccc2Cl)c1 (stereo not drawn),22.9
8,CCOCCCNCc1ccc(OCc2ccccc2Cl)cc1,-46.9
9,Cc1nc2ncnn2c(C)c1Cc1cccc(C(F)(F)F)c1,-4.21
10,COC(=O)N(NC(=O)C(O)(CCC(C)C)CCC(C)C)c1ccccc1,21.3
11,O=C(OCn1nnc2ccccc2c1=O)c1cccc(S(=O)(=O)N2CCOCC2)c1,-17.1
12,CCCCCC(=O)NNC(=O)c1c(O)c2ccccc2n(CC)c1=O,-13.5
13,Cl.Clc1ccc(Nc2nc(N3CCOCC3)nc(N3CCOCC3)n2)cc1Cl,11.7
14,CCC(C)(C)NC(=O)c1ccc(S(=O)(=O)N2CCCCCC2)cc1,-0.628
15,O=C(/C=C/Nc1ccc(Oc2ccccc2Cl)cc1)c1ccco1,-1.79
16,CC1(C(=O)N(c2ccccc2)C(C(=O)NC2CCCC2)c2ccccn2)CC(=O)N=C2C=CC=CN21 (stereo not drawn),11.5
17,COc1ccc(C2C(C#N)=C(N)Oc3n[nH]c(C)c32)cc1CN1CCN(c2ccc(F)cc2)CC1 (stereo not drawn),-65.6
18,CC(C)(Oc1ccc(Cl)cc1)C(=O)OCc1nc2ccsc2c(=O)[nH]1,-11.1
19,O=C(CN1CCN(c2ccc(O)cc2)CC1)Nc1ccc2c(c1)OCCCO2,-5.96
20,O=C(CSc1oc(-c2ccccc2)nc1S(=O)(=O)c1ccc(F)cc1)NCC1CCCO1 (stereo not drawn),-5.48
21,CCOC(=O)c1ccc(-c2csc(NC(=O)CN3CCC(C)CC3)n2)cc1,-12.3
22,O=[N+]([O-])c1cc(C(F)(F)F)ccc1N1CCCNCC1,-37.5

row,Compound,"hERG current change (%, negative = inhibition) at 10uM [%]"
1,O=c1cc(CNCCCO)c2ccccc2[nH]1,-0.517
2,Cc1cccnc1NC(=S)NC(=O)c1cncc(Br)c1,14.7
3,CCOC(=O)C1CCCN(C(=O)C2CCN(S(=O)(=O)c3cnc[nH]3)CC2)C1 (stereo not drawn),17
4,Cc1cc2oc(C(=O)N(Cc3ccco3)C3CCS(=O)(=O)C3)cc(=O)c2cc1Cl (stereo not drawn),-42.3
5,O=C(Nc1ccc(F)cc1)c1cc(-c2ccccc2)no1,14
6,Cc1cc(S(=O)(=O)NCc2ccccc2)ccc1OCC(=O)Nc1cccc([N+](=O)[O-])c1,10.3
7,COc1ccc(C(=O)Nc2ccccc2-c2nnn(CC(=O)N3CCOCC3)n2)cc1,4.59
8,Cc1ccc(NC(=O)COC(=O)c2ccc(-n3cnnn3)cc2)c(Br)c1,-1.08
9,O=S(=O)(c1ccc(Cl)cc1)N1CCN(CCc2ccccc2)CC1,-3.7
10,c1ccc2c(c1)CNc1ccccc1O2,2.94
11,COc1ccccc1N(C)S(=O)(=O)c1ccc(C(=O)OCC(=O)N2CCCCCC2)cc1,12
12,N#CC1=C(N)OC2=C(C(=O)CCC2)C1c1ccc(OC(=O)N2CCOCC2)cc1 (stereo not drawn),1.64
13,Cc1ccc(CN(C)C(=O)c2cc(Br)c(Br)s2)o1,7.75
14,CC(C)N(CCO)C(=O)CCc1nnc(Cc2cccc(C(F)(F)F)c2)o1,17.9
15,CCOC(=O)CSc1nnc(NC(=O)c2cccc(S(=O)(=O)N3CCCCC3)c2)s1,8.12
16,COc1ccc(/C=C/c2nc3ccccc3n2C)cc1,-47
17,Cc1ccc(C2CC(c3cccs3)=NN2C(=O)c2ccco2)o1 (stereo not drawn),-12.8
18,COc1ccc(S(=O)(=O)N2CCc3ccccc32)cc1C(=O)Nc1cccnc1,4.44
19,COc1cc(/C=N/N=C(\N)c2nonc2N)cc(OC)c1O,0.137
20,CCN(CC)c1ccc(S(=O)(=O)N2CCOCC2)cc1NC(=O)COC(=O)COc1ccccc1C,12.7
21,CCc1nc(Nc2ccccc2)c2nnn(Cc3ccccc3)c2n1,8.23
